Experimental data: PubChem BioAssay AID1963576 (National Center for Advancing Translational Sciences (NCATS), 2024)
The whole screen tested about 46,000 compounds, of which about 60 (0.1%) were called active. Not shown: some 3% with an inconclusive outcome. The call rests on the fitted dose curve; in most records, active means well fitted inhibition curve with a large enough effect; inconclusive means small, poorly fitted or top-dose-only effect; inactive means no such curve, though single readings can be large or run the other way. The list shows a part of the results.

Assay: Primary qHTS assay for Inhibitors of ovarian cancer metastasis using an organotypic tumor microenvironment (TME) model. Further: nearly all actives have a fitted effect of over 65% in size.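 On activity change, negative = inhibition: plate controls were DMSO wells for no effect and tomatine positive control wells for full effect.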
Settings: SKOV3ip1-GFP adhesion/invasion on 3D omental model, fluorescence; series mostly up to 45.8 µM; activity change, negative = inhibition: at the top concentration
Method in brief: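 Primary human omental fibroblast/mesothelial 3D culture pre-formed 48 h. SKOV3ip1-GFP cells added with compounds (0.36-46 umol/L), incubated 2 h RT/16 h 37 C, fixed; GFP cells quantified at 488/509 nm.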

outcome, inactive:
COc1ccc(-c2noc(CC(=O)Nc3ccc(C)c(F)c3)n2)cc1
CCc1ccc(C2c3c(oc4cc(C)c(C)cc4c3=O)C(=O)N2c2nc(C)c(C(=O)OC)s2)cc1 (stereo not drawn)
Cc1ccc(Nc2cc(C)c(C#N)c3nc4ccccc4n23)c(C)c1
COC(=O)c1sccc1S(=O)(=O)N(CC(=O)Nc1ccccc1)c1ccccc1
Cc1c(Cl)cccc1NC(=O)C1CCN(c2nc3ccccc3[nH]2)CC1
CCCC(=O)Nc1cccc(-c2cn3c(C)csc3n2)c1
CC(C)c1cnc2c(c1SCC(=O)NC(C)(C)C)c(=O)n(C)c(=O)n2C
CCn1cc2c(n1)-c1c(oc(C(=O)Nc3ccc(Br)cc3F)c1C)CC2
CCc1c(C)c2ccc(O)c(CN3CCN(c4cc(Cl)ccc4C)CC3)c2oc1=O
CCCc1cc(=O)oc2c3c(ccc12)OCN(Cc1ccccc1OC)C3
CCN(CC)C(=O)Cn1c(=O)n(CCCCCC(=O)NCc2ccc3c(c2)OCO3)c(=O)c2sccc21
CCOc1ccc(CNC(=O)c2oc3c(c2C)-c2nn(Cc4cccc(Cl)c4)cc2CC3)cc1

Activity change, negative = inhibition, inactive:
COc1cc(OC)c(C2C(C(=O)Nc3ccccc3)=C(C)Nc3ncnn32)cc1OC (stereo not drawn) -9.89%
Cc1cc(Cl)ccc1NC(=O)CCCn1nc(C)c2c(C)n(-c3ccccc3)nc2c1=O 7.51%
CCC1CN(C(=O)Nc2cc(Cl)c(OC)cc2OC)c2ccccc2O1 (stereo not drawn) 31.9%
Cc1cc(C)cc(NC(=O)CSc2nc3sc4c(c3c(=O)[nH]2)CCCC4)c1 0.428%
CCN1CCN(c2oc(/C=C/c3cc(OC)c(OC)c(OC)c3)nc2C#N)CC1 -23.2%
CCCCN(C)S(=O)(=O)c1ccc(C(=O)Nc2ccc(-c3nc4ccc(C)cc4s3)cc2)cc1 -27.3%
CC(C)C(=O)OCc1cc(=O)n2nc(C3CC3)sc2n1 -24.6%
COc1cc(C2Nc3ccccc3-c3nnc(SCc4ccc(C)cc4)nc3O2)cc(OC)c1O (stereo not drawn) -9.78%
CCc1ccc(CNC(=O)c2cnc3c(C)cccn3c2=O)cc1 -4.83%
CCc1nn(CC(=O)NCCCc2ccccc2)c(=O)c2cc3ccccc3n12 7.62%
Cc1c(Cl)cccc1NC(=O)Cn1c(=O)n(Cc2nc(-c3ccccc3)no2)c(=O)c2cc3c(cc21)OCO3 11.6%
Cc1ccc(Cn2c(=O)c3cccnc3n(CC(=O)Nc3cc(Cl)ccc3C)c2=O)cc1 0.529%
CSc1ccc(CCNC(=O)c2cc3cc4cc(C)ccc4nc3s2)cc1 -5.56%
CCOc1ccc(N(C)C(=O)c2oc(=O)c3ccccc3c2-c2ccccc2)cc1 3.76%
CCc1ccc(-c2nc(CS(=O)CC(=O)NCCc3ccc(C)cc3)c(C)o2)cc1 (stereo not drawn) 0.716%
Cc1ccc(CN(C(=O)c2ccc(OCC(C)C)cc2)c2ccccn2)o1 -0.432%
CCOC(=O)c1noc2nc(C)n(CC(=O)Nc3cccc(OC)c3)c(=O)c12 -3.49%
Cc1ccc(N(CC(=O)N2CCN(c3cc(C)ccc3C)CC2)S(=O)(=O)c2c(C)nn(C)c2C)cc1 -1.45%
O=C(O)CC1c2ccccc2CCN1C(=O)Nc1cc(Cl)ccc1Cl (stereo not drawn) -1.48%
Cc1cccc2c1-c1sc(C(=O)Nc3ccc(F)cc3F)cc1CO2 -0.812%
CCc1ccc(S(=O)(=O)c2nnn3c2nc(N2CCN(c4ccccc4)CC2)c2cc(Cl)ccc23)cc1 8.64%
CCCCC1CCC(C(=O)N2CC(=O)Nc3ccc(Br)cc3C2c2ccc(F)cc2)CC1 (stereo not drawn) -7.99%
Cc1cc(Cl)ccc1-n1c(CCC(=O)O)ccc1-c1cccs1 -0.551%
CN(C(=O)Cn1nc(Cc2cccnc2)c2ccccc2c1=O)c1cccc(C(F)(F)F)c1 17.9%
Cc1ccc(CNC(=O)c2ccc(N3CCCC3)c(NC(=O)Nc3ccc(C)cc3)c2)cc1 1.43%
Cc1ccc(CNC(=O)C(=O)Nc2c3c(nn2-c2ccc(F)cc2)CSC3)cc1 -29.2%
Cc1ccc(NC(=O)CN2C(=O)COc3ccc(S(=O)(=O)N4CCCCCC4)cc32)c(C)c1 -2.04%
CCC(=O)OCc1cc(=O)n2nc(C3CC3)sc2n1 -19.7%
O=c1c2sc3ccccc3c2n(Cc2cccc(F)c2)c(=O)n1CCc1ccccc1 7.38%
CC(=O)Nc1cccc(-c2nc(-c3ccccc3)no2)c1 -9.84%
CCOC(=O)c1ccc(N2C(=O)c3n[nH]c(-c4ccco4)c3C2c2ccc(C(=O)OC)cc2)cc1 (stereo not drawn) 3.68%
O=C(c1ccc2c(c1)N(Cc1ccc(Cl)cc1)C(=O)c1ccccc1S2(=O)=O)N1CCCC1 -3.53%
CCCCCCC(=O)Nc1ccc2nc3c(=O)n(C)c(=O)n(C)c3nc2c1C -0.471%
CCCc1cnc2c(c1SCC(=O)NCc1ccc(C)cc1)c(=O)n(C)c(=O)n2C 13.5%
Cc1cc(C)cc(OCC(=O)Nc2cccc3cccnc23)c1 6.99%
COc1ccc(C)c2sc(NC(=O)c3ccc(S(=O)(=O)N(C)C)cc3)nc12 3.7%
